According to PubChem BioAssay (NCATS):
The inconclusive results got no clear call from the source; some entries with a clear call stand among them for comparison. For some assays here: A potency beside an inconclusive call is a rough fit, not a confirmed value. The source made the active and inactive calls. Calls follow the shape of the dose curve; as a rule, active = well fitted curve in the direction sought with a large enough effect; inconclusive = small, poorly fitted or top-dose-only effect, or another doubt; inactive = no such curve, though single readings can be large; an effect the other way counts as inactive or inconclusive.

Legend:
[1] = qHTS of pediatric cancer cell lines to identify multiple opportunities for drug repurposing: Primary screen for SK-N-MC cells (AID 1347093); conditions: SK-N-MC viability, CellTiter-Glo luminescence, 48 h; series mostly up to 46 µM; also: potency is read from the fitted curve at half-maximal effect
Summary of the method: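 Metabolically active cells were quantified by ATP-dependent luminescence (CellTiter-Glo, 15 min at room temperature) following 48 h treatment. Cells had been plated at 500-1,000 per well and settled for 5 h beforehand.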

[2] = qHTS of pediatric cancer cell lines to identify multiple opportunities for drug repurposing: Primary screen for NB-EBc1 cells (AID 1347095)
Summary of the method: (§1)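 Plated cells (500-1,000 per well, growth media) were allowed to settle for 5 hours, treated with compound dilutions for 48 hours, then lysed with CellTiter-Glo for 15 min at room temperature before luminescence reading.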

[3] = qHTS of pediatric cancer cell lines to identify multiple opportunities for drug repurposing: Primary screen for SK-N-SH cells (AID 1347098); also: potency is read from the fitted curve at half-maximal effect; nearly all actives have a fitted effect of over 65% in size
Summary of the method: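 Cells (500-1,000/well) rested 5 h, then received compounds for 48 h; metabolically active cells were measured by CellTiter-Glo luminescence. Final concentrations spanned up to 46 µM (MIPE, 11-point) or 0.59 nM-46 µM (NPC, 8-point) in primary screens, 11-point in follow-ups.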

[4] = qHTS of pediatric cancer cell lines to identify multiple opportunities for drug repurposing: Primary screen for NB1643 cells (AID 1347099); also: potency is read from the fitted curve at half-maximal effect; nearly all actives have a fitted effect of over 50% in size
Summary of the method: as §1

[5] = qHTS of pediatric cancer cell lines to identify multiple opportunities for drug repurposing: Primary screen for Rh41 cells (AID 1347108);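 also: luminescence drop marks cytotoxic hits; nearly all actives have a fitted effect of over 70% in size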
Summary of the method: as §1

[6] = Primary qHTS for small molecule stabilizers of the endoplasmic reticulum resident proteome: Secreted ER Calcium Modulated Protein (SERCaMP) assay (AID 1508630); conditions: SH-SY5Y GLuc-SERCaMP (Gaussia luciferase released on ER calcium loss) secretion, thapsigargin, luminescence; series mostly up to 38.4 µM; also: potency is read from the fitted curve at half-maximal effect
Summary of the method: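 The SH-SY5Y reporter protocol was run at 3 concentrations up to 38.3 uM (primary) or 11 concentrations (follow-up): 16 h compound, 100 nM thapsigargin for 4 h, then extracellular luciferase luminescence.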

[7] = Quantitative High-Throughput drug screen in 47 multiple myeloma cell lines against the NCATS MIPE library collection: Delta47_JCRB cell viability assay (AID 1918925; also: potency is read from the fitted curve at half-maximal effect; nearly all actives have a fitted effect of over 45% in size); conditions: Delta47 myeloma viability, CellTiter-Glo ATP, 48 h; viability (% of DMSO): at 45.8 µM (top of the series)
Summary of the method: (§2)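 qHTS of the MIPE 4.0 collection: 500 myeloma cells/well, 48 h drug exposure at 37C in 5% CO2, then CellTiter-Glo for 5 min at room temperature before luminescence reading.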

[8] = Quantitative High-Throughput drug screen in 47 multiple myeloma cell lines against the NCATS MIPE library collection: AMO1_DSMZ cell viability assay (AID 1918927; also: nearly all actives have a fitted effect of over 30% in size); conditions: AMO1 myeloma cells viability, CellTiter-Glo ATP luminescence, 48 h; viability, % of DMSO: at 45.8 µM (top of the series)
Summary of the method: as §2

[9] = Quantitative High-Throughput drug screen in 47 multiple myeloma cell lines against the NCATS MIPE library collection: ARP1_JJKsccF8 cell viability assay (AID 1918928; also: potency is read from the fitted curve at half-maximal effect; nearly all actives have a fitted effect of over 40% in size)
Summary of the method: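 500 cells/well; MIPE 4.0 library pinned in; 48 h, 37 °C, 5% CO2; CellTiter-Glo ATP luminescence. Controls: DMSO = 100% viability, medium only = 0%.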

[10] = Quantitative High-Throughput drug screen in 47 multiple myeloma cell lines against the NCATS MIPE library collection: Karpas417_ECACC cell viability assay (AID 1918961); conditions: Karpas417 myeloma viability, CellTiter-Glo ATP luminescence, 48 h; viability (% of DMSO): at 45.8 µM (top of the series); also: potency is read from the fitted curve at half-maximal effect
Summary of the method: (§3)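 Inhibition of cell viability is measured here. Each line was plated at 500 cells per well, treated with MIPE 4.0 drugs, kept 48 hours at 37C, then assayed for ATP content by CellTiter-Glo luminescence.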

[11] = Quantitative High-Throughput drug screen in 47 multiple myeloma cell lines against the NCATS MIPE library collection: KHM11_PLB cell viability assay (AID 1918962); conditions: KHM11 myeloma cell viability, CellTiter-Glo ATP luminescence, 48 h; series mostly up to 45.8 µM; also: potency is read from the fitted curve at half-maximal effect; nearly all actives have a fitted effect of over 35% in size
Summary of the method: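 Approved and investigational drugs from MIPE 4.0 were added by pin tool to 500 cells per well. After 48 hours at 37C, ATP-based CellTiter-Glo luminescence indicated remaining viability.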

[12] = Quantitative High-Throughput drug screen in 47 multiple myeloma cell lines against the NCATS MIPE library collection: JIM1_ECACC cell viability assay (AID 1918964)
Summary of the method: as §2

[13] = Quantitative High-Throughput drug screen in 47 multiple myeloma cell lines against the NCATS MIPE library collection: INA6_PLB cell viability assay (AID 1918965; also: potency is read from the fitted curve at half-maximal effect; nearly all actives have a fitted effect of over 55% in size); conditions: INA6 myeloma viability, CellTiter-Glo ATP luminescence, 48 h; series mostly up to 45.8 µM
Summary of the method: as §3

[14] = Quantitative High-Throughput drug screen in 47 multiple myeloma cell lines against the NCATS MIPE library collection: KMS27_JCRB cell viability assay (AID 1918970); conditions: KMS27 myeloma cells, CellTiter-Glo ATP viability, 48 h; viability (% of DMSO): at 45.8 µM (top of the series); also: nearly all actives have a fitted effect of over 30% in size
Summary of the method: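 CellTiter-Glo luminescence after 48 h drug exposure at 37 °C; 500 cells/well, 1536-well format, pin-tool compound addition; DMSO = 100%, media-only = 0% viability.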

[15] = Quantitative High-Throughput drug screen in 47 multiple myeloma cell lines against the NCATS MIPE library collection: KMS12BM_JCRB cell viability assay (AID 1918971); also: nearly all actives have a fitted effect of over 35% in size
Summary of the method: (§4)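 CellTiter-Glo luminescence (ATP) after 48 h compound exposure, 37C/5% CO2; 500 cells/well; MIPE 4.0 approved/investigational drugs pinned in; DMSO = 100%, media only = 0% viability.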

[16] = Quantitative High-Throughput drug screen in 47 multiple myeloma cell lines against the NCATS MIPE library collection: KMS20_JCRB cell viability assay (AID 1918973); conditions: CellTiter-Glo ATP, 48 h; viability (% of DMSO): at 45.8 µM (top of the series); also: nearly all actives have a fitted effect of over 45% in size
Summary of the method: as §2

[17] = Quantitative High-Throughput drug screen in 47 multiple myeloma cell lines against the NCATS MIPE library collection: KMS21BM_JCRB cell viability assay (AID 1918974); conditions: ATP luminescence, 48 h; viability: at 45.8 µM (top of the series); also: potency is read from the fitted curve at half-maximal effect
Summary of the method: as §2

[18] = Quantitative High-Throughput drug screen in 47 multiple myeloma cell lines against the NCATS MIPE library collection: KMS26_JCRB cell viability assay (AID 1918975); also: potency is read from the fitted curve at half-maximal effect; nearly all actives have a fitted effect of over 45% in size
Summary of the method: as §4

[19] = Quantitative High-Throughput drug screen in 47 multiple myeloma cell lines against the NCATS MIPE library collection: MMM1_PLB cell viability assay (AID 1918976); also: potency is read from the fitted curve at half-maximal effect; nearly all actives have a fitted effect of over 35% in size
Summary of the method: (§5)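 ATP-based luminescence (CellTiter-Glo, 5 min RT incubation) quantified surviving cells following two days' treatment with MIPE 4.0 agents at 37 °C, 5% CO2.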

[20] = Quantitative High-Throughput drug screen in 47 multiple myeloma cell lines against the NCATS MIPE library collection: MOLP8_DSMZ cell viability assay (AID 1918977); also: potency is read from the fitted curve at half-maximal effect; nearly all actives have a fitted effect of over 45% in size
Summary of the method: as §5

[21] = Quantitative High-Throughput drug screen in 47 multiple myeloma cell lines against the NCATS MIPE library collection: NCIH929_DSMZ cell viability assay (AID 1918978); conditions: NCI-H929 myeloma viability, CellTiter-Glo ATP, 48 h; series mostly up to 45.8 µM; also: potency is read from the fitted curve at half-maximal effect; nearly all actives have a fitted effect of over 35% in size
Summary of the method: as §5

[22] = Quantitative High-Throughput drug screen in 47 multiple myeloma cell lines against the NCATS MIPE library collection: OCIMY1_PLB cell viability assay (AID 1918979); also: nearly all actives have a fitted effect of over 35% in size
Summary of the method: as §5

[23] = Quantitative High-Throughput drug screen in 47 multiple myeloma cell lines against the NCATS MIPE library collection: MM1S_ATCC cell viability assay (AID 1918980)
Summary of the method: as §5

Measured: Potency
Tags tell the direction and shape of the fitted curve.

O=C(CS(=O)Cc1ccco1)NCC=CCOc1cc(CN2CCCCC2)ccn1 (stereo not drawn)
inactive: [2] | [5] | [8] | [12] | [14] | [15] | [16] | [22]
inconclusive: [1] 37.2 µM [cytotoxic, single point] | [3] 21.5 µM [cytotoxic, partial curve] | [4] 11.8 µM [cytotoxic, full curve] | [6] 29.8 µM [inhibitor, single point] | [7] 0.235 µM [cytotoxic, full curve, poor fit] | [9] 0.662 µM [rising, full curve, poor fit] | [10] 0.0015 µM [cytotoxic, full curve, poor fit] | [11] 0.001 µM | [13] 33.2 µM [cytotoxic, single point] | [17] 26.4 µM [cytotoxic, partial curve, poor fit] | [18] 0.0023 µM [cytotoxic, full curve, poor fit] | [19] 0.0093 µM [rising, full curve] | [20] 0.59 µM [rising, full curve, poor fit] | [21] 23.5 µM [cytotoxic, single point] | [23] 37.2 µM [cytotoxic, single point]
